# Among all 46,000 compounds or so, about 60 (0.1%) were called active. Another 3% or so got no clear call; they are omitted. The call rests on the fitted dose curve; in most records, active means well fitted inhibition curve with a large enough effect; inconclusive means small, poorly fitted or top-dose-only effect; inactive means no such curve, though single readings can be large or run the other way. The list shows a part of the results.
# Test: Primary qHTS assay for Inhibitors of ovarian cancer metastasis using an organotypic tumor microenvironment (TME) model. Further: nearly all actives have a fitted effect of over 65% in size.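 On Potency: count of GFP cancer cells still attached after washing and fixation.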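 On activity change, negative = inhibition: plate controls were DMSO wells for no effect and tomatine positive control wells for full effect.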
# Conditions: SKOV3ip1-GFP adhesion/invasion on 3D omental model, fluorescence; series mostly up to 45.8 µM; activity change, negative = inhibition: at the top concentration
# In short: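 Primary human omental fibroblast/mesothelial 3D culture pre-formed 48 h. SKOV3ip1-GFP cells added with compounds (0.36-46 umol/L), incubated 2 h RT/16 h 37 C, fixed; GFP cells quantified at 488/509 nm.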
# Potency means the concentration at half of the fitted maximal effect.
Structure (SMILES),"activity change, negative = inhibition",outcome,Potency
CCC(C)n1c(SCc2c(F)cccc2Cl)nc2ccsc2c1=O (stereo not drawn),inactive: -2.07%,,
COc1ccc(N2CCN(S(=O)(=O)c3ccc4c(c3)CCCN4C(C)=O)CC2)cc1,inactive: 15.2%,,
COc1cc2c(cc1OC)C(COc1ccc(C(C)C)cc1)N(C(=O)c1ccc(S(=O)(=O)N3CCCC3)cc1)CC2 (stereo not drawn),inactive: 113%,,
CC1CCN(CCCNC(=O)c2cn(C)c3ccc(S(=O)(=O)N(C)C4CCCCC4)cc3c2=O)CC1,inactive: -8.67%,,
COc1cc2c(cc1OC)C(COc1ccc(F)cc1)N(C(=O)c1ccc(S(=O)(=O)N3CCCC3)cc1)CC2 (stereo not drawn),inactive: -19.7%,,
COc1cc(C2CC(=O)N(Cc3ccc(F)cc3)c3ccccc3S2)cc(OC)c1OC (stereo not drawn),inactive: -4.37%,,
CCc1cc(C(=O)NC(C)c2ccccc2)no1 (stereo not drawn),inactive: 1.14%,,
COc1ccc(Br)c(C(=O)Nc2cc3c(cc2N2CCCCC2)n(C)c(=O)c(=O)n3C)c1,inactive: -2.85%,,
COC(=O)c1cc(NC(=O)[C@H](CCS(C)(=O)=O)N2Cc3ccccc3C2=O)cc(C(=O)OC)c1,inactive: -7.69%,,
CCc1ccc(-c2nc3cc(NC(=O)c4cc5ccccc5cc4OC)ccc3o2)cc1,inactive: -24.9%,,
Cc1ccc(-n2nc(CO)c(C(=O)NCc3cccs3)n2)cc1C,inactive: 4.57%,,
CCOc1ccc(-c2cc(-c3nc(-c4cc(OC)c(OC)c(OC)c4)no3)[nH]n2)cc1Cl,inactive: -4.75%,,
Cc1cccc(NC(=O)c2c(C)cc(C)nc2SCC(=O)Nc2c(C)cc(C)cc2C)c1,inactive: -6.4%,,
CC(=O)Nc1ccc(NC(=O)c2ccc(COc3ccc(Cl)cc3Cl)o2)cc1,inactive: 1.19%,,
O=C(CCCn1c(=O)c2ccccc2n(Cc2ccc(F)cc2Cl)c1=O)NCCc1ccc(Cl)cc1,inactive: 33.2%,,
COC(=O)c1ccccc1NC(=O)c1ccc2nc(Cc3ccccc3)oc2c1,inactive: -3.05%,,
CC(=O)c1cccc(NC(=O)CSc2nc(=O)n(Cc3cccnc3)c3c2CCC3)c1,inactive: -1.71%,,
Oc1c(C(c2ccccc2F)N2CCCCC2)sc2nc(-c3ccco3)nn12 (stereo not drawn),inactive: -2.73%,,
Nc1cc(=O)nc(SCC(=O)Nc2ccc(F)cc2)n1-c1ccccc1Cl,inactive: -8.68%,,
COc1ccc(C)cc1NC(=O)C1CCN(S(=O)(=O)c2ccc3[nH]c4c(c3c2)CCCCC4)CC1,inactive: -4.27%,,
Cc1cc(C)cc(NC(=O)CCCN2C(=O)COc3ccc(C)cc32)c1,,inactive,
Cc1ccccc1Nc1c(-c2ccc(Cl)s2)nc2c(C)cccn12,inactive: 8.48%,,
COc1ccc(-n2ncc(C(=O)N3CCN(c4ncccn4)CC3)c2C2CCN(C(=O)OC(C)(C)C)CC2)cc1,,inactive,
COc1ccc(CNC(=O)c2cc(-c3cccc(Cl)c3)on2)cc1,inactive: 5.59%,,

Structure (SMILES),"activity change, negative = inhibition",outcome,Potency
Cc1c(C(=O)N2CCC(C)CC2)c(S(=O)(=O)NCc2ccc(Br)cc2)c(C)n1C,,inactive,
CCCCc1nc2ccccc2n2c(-c3ccc(OC)cc3)c3c(=O)n(C)c(=O)n(C)c3c12,inactive: 6.38%,,
CC(C)c1ccc(NC(=O)C2CCN(c3nc(-c4ccc(C(C)C)cc4)no3)CC2)cc1,inactive: -36.5%,,
Cc1ccc(NC(=O)c2cn3c4c(ccc(Cl)c4c2=O)OC(C)C3)c(C)c1 (stereo not drawn),inactive: 5.6%,,
CC(C)CC(=O)Nc1ccc(S(=O)(=O)Nc2cc3c(cc2N2CCOCC2)n(C)c(=O)c(=O)n3C)cc1,inactive: 3.76%,,
O=C(CCc1cn(Cc2ccccc2Cl)c2ccccc12)NC1CCCCC1,inactive: 3.01%,,
O=C(Nc1ccc2c(c1)CCCN2C(=O)c1cccs1)c1c(F)cccc1F,inactive: -0.353%,,
CC(C)c1ccc(NC(=O)c2ccc3c(c2)CCCN3S(C)(=O)=O)cc1,inactive: -5.63%,,
Cc1ccc(N2CC(NC(=O)c3ccc(S(=O)(=O)N4CCCC4)cc3)CC2=O)cc1 (stereo not drawn),,inactive,
CC(C)(C)OC(=O)N1CCC(c2c(C(=O)NCCCN3CCc4ccccc4C3)cnn2-c2ccccc2)CC1,,inactive,
COc1ccc(-c2c(C)c3cc(OC(=O)N4CCOCC4)ccc3oc2=O)cc1,inactive: -5.39%,,
CCOc1ccccc1NC(=O)Cn1c(=O)n(CCCC(=O)NCCc2ccc(C)cc2)c(=O)c2ccccc21,inactive: 20.6%,,
COc1ccc(OC)c(NC(=O)CCc2c(C)nn(-c3ccc(N4CCCC4)nn3)c2C)c1,,inactive,
C=C1C(=O)[C@@]23C(CC[C@@H]1[C@H]2O)[C@@]12CO[C@]3(O)[C@@H](O)[C@@H]1C(C)(C)CC[C@@H]2O (stereo partly drawn),,,active: 18.7 µM
COc1ccc(OC)c(CCNC(=O)C2CCN(c3ncnc4c3nc3n4CCCCC3)CC2)c1,inactive: -8.67%,,
N#Cc1c(-n2ncnc2-c2ccc(Br)cc2)sc2c1CCCCC2,inactive: -0.347%,,
CSc1ccc(CNC(=O)C2CCN(c3nnc(-n4cccc4CNc4ccc(C)cc4)s3)CC2)cc1,,inactive,
CCc1ccc(CNC(=O)CN(c2ccc(C)cc2)S(=O)(=O)N(C)C)cc1,inactive: -8.31%,,
COc1ccc(-c2nc(C)c(CCNC(=O)C(=O)Nc3c(C)cccc3C)s2)cc1OC,inactive: 2.04%,,
O=C(Cn1cc(SCc2ccccc2)c2ccccc21)N1CCCCC1,inactive: -2.31%,,
CCN(CC)S(=O)(=O)c1ccc2c(c1)c(=O)c(C(=O)NCCc1ccc(OC)c(OC)c1)cn2C,,inactive,
CCOC(=O)c1ccccc1NC(=O)c1c(-c2ccccc2)noc1C,inactive: -36.6%,,
Cc1nc2ccn(Cc3ccccc3)c(=O)c2cc1C(=O)Nc1ccc(F)cc1Cl,,inactive,
COC(=O)CNC(c1ccccc1)c1cc(Br)ccc1NC(=O)c1ccc(Cl)cc1 (stereo not drawn),inactive: 7.45%,,

Structure (SMILES),"activity change, negative = inhibition",outcome,Potency
Cc1coc2cc3oc(=O)c(CCC(=O)N4CCCCC4)c(C)c3cc12,inactive: 21.6%,,
CCC(=O)N1CCc2cc(Br)cc(S(=O)(=O)NCc3cccc(OC)c3)c21,,inactive,
COc1cccc(CN(C(=O)c2oc3ccc(Br)cc3c2C)C2CCS(=O)(=O)C2)c1 (stereo not drawn),inactive: -11.3%,,
COc1ccc(C2Nc3ccccc3-n3c(-c4ccccc4)c4c(=O)n(C)c(=O)n(C)c4c32)cc1 (stereo not drawn),inactive: 44.6%,,
COc1ccccc1-c1noc(-c2ccc(NCc3ccccc3)c([N+](=O)[O-])c2)n1,inactive: 0.82%,,
Cc1cc2nc(NC(=O)c3ccc(S(=O)(=O)N4CCOCC4)cc3)sc2cc1C,inactive: -13.4%,,
COc1cccc(NC(=O)Cn2c(=O)n(-c3ccccc3)c(=O)c3c4c(sc32)CCCC4)c1,,inactive,
Cc1ccc(-c2cc(N)n(Cc3cccc(Cl)c3)n2)cc1,,inactive,
Cc1ccccc1-c1ccnc2c(-c3ccc(F)cc3)c(C)nn12,inactive: -0.766%,,
Cc1ccc(C)c(NC(=O)CCc2nc3cccnc3n2Cc2cccs2)c1,inactive: 0.587%,,
CCN(CC)C(=O)CSc1nc(-c2ccccc2)cc(-c2ccc(OC)cc2)c1C#N,,inactive,
COc1cc(OC)c(NC(=O)Cn2nc(C)n3cccc3c2=O)cc1Cl,inactive: 1.51%,,
CCC(=O)N1CCc2cc(S(=O)(=O)N3CCN(c4ccccc4F)CC3)ccc21,inactive: 1.32%,,
CC1=C(c2cccc(Cl)c2)S(=O)(=O)NC1=NCc1ccccc1C,,inactive,
COc1ccc(C)cc1NC(=O)CN1C(=O)CSc2ccc(S(=O)(=O)N3CCCC3)cc21,,inactive,
CCOC(=O)c1sc2ccccc2c1S(=O)(=O)N1CCN(c2ccccc2F)CC1,inactive: 4.28%,,
COc1ccc(N2Cc3cccc(C(=O)Nc4ccc(C)cc4)c3C2=O)cc1,,inactive,
COc1ccc(C)cc1NC(=O)CN(C)S(=O)(=O)c1ccc2c(c1)CCCN2C(C)=O,inactive: 3.17%,,
COCCCN1CN=C(NS(=O)(=O)c2ccc(NC(C)=O)cc2)NC1,,inactive,
Cc1ccc(-n2nc3c(N4CCC(C(=O)NCCc5ccccc5)CC4)nnc(C)c3c2C)cc1,inactive: -13.9%,,
CCOc1ccc(NC(=O)Nc2cccc(C)n2)cc1,inactive: 7.38%,,
COc1cc(C(=O)N2CCc3c([nH]c4ccccc34)C2c2ccc(F)cc2)cc(OC)c1OC (stereo not drawn),inactive: -1.49%,,
CC1=Nc2cc(C(=O)NC3CCC(C)CC3)ccc2Sc2c(C)ccc(C)c21 (stereo not drawn),inactive: 8.3%,,
CCC(=O)N1CCc2cc(CNC(=O)Cc3ccc(OC)c(OC)c3)ccc21,inactive: 36.6%,,

Structure (SMILES),"activity change, negative = inhibition",outcome,Potency
Cc1ccccc1Cn1cnc2c(oc3ccccc32)c1=O,inactive: -16.2%,,
CC(=O)N1CCc2c(sc3c2c(=O)n(Cc2ccccc2)c(=O)n3Cc2cccc(Cl)c2)C1,inactive: 44%,,
COc1cc(-c2noc(-c3ccc(N4CCCC4)c([N+](=O)[O-])c3)n2)cc(OC)c1OC,,inactive,
COc1ccc(-c2cn3nc(N4CCC(C(=O)NCc5cccc(Cl)c5)CC4)sc3n2)cc1,inactive: 1.86%,,
COC(=O)c1ccc(Nc2nc(-c3ccc(C)cc3)nc3ccccc23)cc1,inactive: 26.9%,,
FC(F)(F)c1ccc2c(c1)ncc1c(-c3ccccc3)nn(-c3ccccc3)c12,,inactive,
CCOc1ccccc1CNC(=O)C1CCN(C(=O)N2CCOc3ccc(Cl)cc32)CC1,,inactive,
COc1ccc(NC(=O)c2ccc3c(c2)N(Cc2cccc(Cl)c2)C(=O)c2ccccc2S3(=O)=O)cc1Cl,inactive: 7.86%,,
CCN(CC)C(=O)Cn1ncc2c([nH]c3ccc(C)cc32)c1=O,,inactive,
CC(C)Oc1ccc(CNC(=O)c2ccc(CS(=O)Cc3ccccc3Cl)o2)cc1 (stereo not drawn),inactive: -7.05%,,
COc1ccc(OC)c(NC(=O)c2oc3c(c2C)-c2nn(Cc4ccc(Cl)cc4)cc2CC3)c1,inactive: 13.7%,,
Cc1cc(C)n2nc(-c3ccc(Cl)cc3)nc2n1,inactive: -0.159%,,
Cc1cccc(N2CCN(c3nc4ccc(C(=O)c5ccccc5)cc4n4cnnc34)CC2C)c1 (stereo not drawn),inactive: 3.17%,,
CCOC(=O)c1c(NC(=O)CSc2cn(CCNC(=O)c3ccc(OC)c(OC)c3)c3ccccc23)sc2c1CCC2,inactive: 13.5%,,
Cc1cn2c(=O)cc(COC(=O)c3cccc(NC(=O)COc4ccccc4)c3)nc2s1,inactive: -1.79%,,
Cc1cccc(OCCSc2nc3ccc(NC(=O)COc4ccccc4C)cc3s2)c1,inactive: -5.04%,,
COC(=O)CN1C(=O)CSc2ccc(S(=O)(=O)Nc3ccccc3)cc21,inactive: -5.62%,,
Cc1ccc2c(CC(=O)N3CCN(c4cccc(Cl)c4)CC3)coc2c1C,inactive: -16.7%,,
CC(=O)Nc1ccc(NC(=O)Cn2cc3c(n2)CCCCC3)cc1,inactive: -25.3%,,
CCOc1ccccc1NC(=O)CCc1c(C)nc2cc(-c3ccccc3)nn2c1C,inactive: 25.2%,,
CC(C)C(=O)Nc1cccc(C(=O)Nc2nnc(C(F)(F)F)s2)c1,inactive: 1.73%,,

# Source: PubChem BioAssay AID1963576 (National Center for Advancing Translational Sciences (NCATS), 2024)
